{
  "source": "paper PMC3712923",
  "about": "“Structure-Guided Design of an Engineered Streptavidin with Reusability to Purify Streptavidin-Binding Peptide Tagged Proteins or Biotinylated Proteins” (PLoS ONE, 2013)",
  "biological_target": "the molecule itself",
  "experiment": "SEC-MALS; HPLC size exclusion (TSK-GEL SuperSW2000) with static and dynamic light scattering, room temperature, in the absence or presence of biotin",
  "data": [
    {"protein": "SAVSBPM18 engineered streptavidin (S27A, G48T) (designed binder, streptavidin with the double mutation S27A, G48T; Secreted by means of the B. subtilis levansucrase (SacB) signal peptide; also called streptavidin SAVSBPM18; source: B. subtilis WB800[pSAVSBPM18], secreted, purified (biotin-agarose)) not shown", "values": [
      {"measurement": "stoichiometry N", "result": 4}
    ]}
  ]
}
